Test results published in the RNAGym collection of RNA variant scans (doi:10.1073/pnas.2313332121).
Variants at the floor of the assay are shown more often than the library holds them.

B1: TPR 5TU (parent)
chain: GGAUCUUCUCGAUCUAACAAAAAAGACAAAUCUGCCACAAAGCUUGAGAGCAUCUUCGGAUGCAGAGGCGGCAGCCUUCGGUGGCGCGAUAGCGCCAACGUUCUCAACUAUGACACGCAAAACGCGUGCUCCGUUGAAUGGAGUUUAUCAUG

Variants of: B1
Experiment: polymerase ribozyme fitness, log enrichment relative to wild type (log ratio); higher = more active; in vitro selection for triplet polymerase activity
Summary of the method: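 Mutant libraries were PCR-built and transcribed for each subunit of a heterodimeric triplet polymerase ribozyme and selected for one round in triplicate at −7 °C, frozen, before gel excision of extended constructs and streptavidin-bead capture. Input and output libraries were Illumina-sequenced, keeping genotypes with ≥10 input reads and ≥1 read per output. Fitness is a logarithmic ratio of genotype to wild-type enrichment, in base 2, using inverse-variance-weighted replicate averages.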

Row | Variant | polymerase ribozyme fitness (log ratio)
1 | GGAUCUUCUCGAUCUAACAAAAAAGACAAAUCUGCCACAAAGCUUGAGAGCGUCUUCGGAUGCAGAGGCGGCAGCCUUCGGUGGCGCGAUAGCGCCAACGUUCUCAACUAUGACACGCAAAACGCGUGCUCCGUUGAAUGGAGUUUAUCAUG [A52G] | -0.491
2 | GGAUCUUCUCGAUCUAACAAAAAAGACAAAUCUGCCACAAAGCUUGAGAGCGUCUUCGGCUGCAGAGGCGGCAGCCUUCGGUGGCGCGAUAGCGUUUACGUUCUCAACUAUGACACGCAAAACGCGUGCUCCGUUGAAUGGAGUUUAUCAUG [A52G A60C C95U C96U A97U] | ≤ -4.2
3 | GGAUCUUCUCGAUCUAACAAAAAAGACAAAUCUGCCACAAAGCUUGAGAGCGUCUUCGGCAGCAGAGGCGGCAUCCUUCGGUGGCGCGAUAGCGCGAACGUUCUCAACUAUGACACGCAAAACGCGUGCUCCGUUGAAUGGAGUUUAUCAUG [A52G A60C U61A G74U C96G] | ≤ -4.2
4 | GGAUCUUCUCGAUCUAACAAAAAAGACAAAUCUGCCACAAAGCUUGAGAGCGUCUUCGGGUGCAGAGGCGGCAGCCUUCGGUGGAGCGAUAGCGGCGACGUACUCAACUAUGACACGCAAAACGAGUGCUCCGUUGAAUGGAGUUUAUCAUG [A52G A60G C85A C95G A97G U102A C125A] | ≤ -4.2
5 | GGAUCUUCUCGAUCUAACAAAAAAGACAAAUCUGCCACAAAGCUUGAGAGCGUCUUCGGUUGCAGAGGCGACAGCCUUCGGUGGCGCGAUAGCGCCAACGUUCUCAACUAUGACACGCAAUACGCGUGCUCCGUGGAAUGGAGUUUAACAUG [A52G A60U G71A A121U U135G U148A] | -4.18
6 | GGAUCUUCUCGAUCUAACAAAAAAGACAAAUCUGCCACAAAGCUUGAGAGCGUCUUCGGAUGCAGCGGAGGCAGCCUUCGGUGGCGCGAUAGAGCCAUCGUUCUCAACUAUGACACGGAAAACGCGUGCUCCGUUGAAGGGAGUUUAUCAUG [A52G A66C C69A C93A A98U C118G U139G] | ≤ -4.2
7 | GGAUCUUCUCGAUCUAACAAAAAAGACAAAUCUGCCACAAAGCUUGAGAGCGUCUUCGGAUGCAGCCGCGGCAGCCUUCGGUGUCGCGAUAGCGCCAAUGUUCUCAACUAUGAUAAGCAAAACGCGUGCUCCGUUGAAAGGAGUAUAUCAUG [A52G A66C G67C G84U C99U C114U C116A U139A U145A] | ≤ -4.2
8 | GGAUCUUCUCGAUCUAACAAAAAAGACAAAUCUGCCACAAAGCUUGAGAGCGUCUUCGGAUGCAGAGGCGGCGGCCUUUGGUGGCGCGAUAGCGCCAACGUUCUCAACUAUGACACGCAAACCGCGUGCUCCGUUGAAUGGAGUUUACCAUG [A52G A73G C79U A122C U148C] | ≤ -4.2
9 | GGAUCUUCUCGAUCUAACAAAAAAGACAAAUCUGCCACAAAGCUUGAGAGCGUCUUCGGAUGCAGAGGCGGCUGCCUUCGGUGGCGCGAUAGCGCCAACGUUCUCAACUACGAUACGCAAAACGCGUGCUCCGUUGAAUGGAGUUUAUCAUG [A52G A73U U111C C114U] | ≤ -4.2
10 | GGAUCUUCUCGAUCUAACAAAAAAGACAAAUCUGCCACAAAGCUUGAGAGCGUCUUCGGAUGCAGAGGCGGCAGCCUUCGGUGGCGCGUUAGGGCCAACGUUCUCAACUAUGACACGCAAAACGCGUGCUCCGUUGAAUGGAGUUUAUCAUG [A52G A89U C93G] | ≤ -4.2
11 | GGAUCUUCUCGAUCUAACAAAAAAGACAAAUCUGCCACAAAGCUUGAGAGCGUCUUCGGAUGCAGAGGCGGCAGCCUUCGGUGGCGCGAUUGCGCCAACGUUCCCAACUAUGACACGCAAAACGCGUGCUCCGUUGAAUGGAGUUUAUCAUG [A52G A91U U104C] | ≤ -4.2
12 | GGAUCUUCUCGAUCUAACAAAAAAGACAAAUCUGCCACAAAGCUUGAGAGCGUCUUCGGAUGCAGAGGCGGCAGCCUUCGGUGGCGCGAUAGCGCCUACGUUCUCAACUAUGACACGCAAAACGCGUGCUCCGUUGAAUGGAGUUUAUCAUG [A52G A97U] | -0.8
13 | GGAUCUUCUCGAUCUAACAAAAAAGACAAAUCUGCCACAAAGCUUGAGAGCGUCUUCGGAUGCAGAGGCGGCAGCCUUCGGUGGCGCGAUAGCGCCAACGUUCUCAACUAUGACACGCAGAACGCGUGCUCCGUUGAAUGGAGUUUAUCAGG [A52G A120G U151G] | ≤ -4.2
14 | GGAUCUUCUCGAUCUAACAAAAAAGACAAAUCUGCCACAAAGCUUGAGAGCGUAUUCGGAUGCAGAGGCGGCAGCCUUCGGUGGCGCGAUAGCGCCAACGUUCUCGACUAUGACACGCAAAACGCGUGGUCCGUUGAAUGGAGGUUUUCAUG [A52G C54A A106G C129G U144G A147U] | ≤ -4.2
15 | GGAUCUUCUCGAUCUAACAAAAAAGACAAAUCUGCCACAAAGCUUGAGAGCGUAUUCGGAUGCAGAGGAGGCAGCCUUCGGUGGCGGGACAGCGCCAACUUUAUGAACUAUGACACGCAAAACGCGUGCUCCGUUGAAUGGAGUUUAUCAUG [A52G C54A C69A C87G U90C G100U C103A C105G] | ≤ -4.2
16 | GGAUCUUCUCGAUCUAACAAAAAAGACAAAUCUGCCACAAAGCUUGAGAGCGUAUUCGGAUGCAGAGGCGGCAGCCUUCGGUGUCGCGAUAGCGCCAACGUUCUCAACUUUGACACGCAAAACGCGUGCUCCGUUGAAUGGAGUUUAUCAUG [A52G C54A G84U A110U] | ≤ -4.2
17 | GGAUCUUCUCGAUCUAACAAAAAAGACAAAUCUGCCACAAAGCUUGAGAGCGUAAUCGGAUGGAGAGGCGGCAGGUUUCGGUGGCGCGAUAGCGCCAACGUUCCCAACUAUGACACGCACAACGCGAGCUCCGUUGAAUGGAGUUUAUCAUG [A52G C54A U55A C63G C75G C76U U104C A120C U127A] | ≤ -4.2
18 | GGAUCUUCUCGAUCUAACAAAAAAGACAAAUCUGCCACAAAGCUUGAGAGCGUAUUCGGAUGCAGAGGCGGCAGCCUGCGGUAGCGCGAUAGCGCCAACGUUCUCAACUAUGACACGCAAAACGCGUGCUCCGUUGAAUGGAGAUUAUGAUG [A52G C54A U78G G83A U144A C149G] | ≤ -4.2
19 | GGAUCUUCUCGAUCUAACAAAAAAGACAAAUCUGCCACAAAGCUUGAGAGCGUCUUAGGAUGCAGGGCCGGCAGCCUUCGGUGGCGCGAUAGUGCCAACGGUCUCAACUAUUACACGCAAAACGCGUGCUCCGUUGAAUCGAGUAUAUCAUG [A52G C57A A66G G68C C93U U101G G112U G140C U145A] | ≤ -4.2
